The source of these data is the RNAGym collection of RNA variant scans (doi:10.1093/nar/gkz1192).

Read counts are not given, so values of variants with three or more changes are uncertain.

First the molecules themselves.
B1: CPEB3 Ribozyme (parent)
chain: UAACAGGGGGCCACAGCAGAAGCGUUCACGUCGCAGCCCCUGUCAGAUUCUGGUGAAUCUGCGAAUUCUGCUGUAUAUCUC

Variants of B1 are the subject of the series. Kind of series: self-cleavage, relative activity (ratio to wild type); higher = more cleavage; in vitro, sequencing. In a few lines: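 Libraries of CPEB3 self-cleaving ribozyme mutants came from rounds of error-prone PCR and carried barcodes, which DNA sequencing matched to variants. In vitro transcription used T7 RNA polymerase at 37°C for 5 hours, with a further 15 min in DNase I before EDTA stopped the reaction; the ribozymes cleaved during both steps. The RNA was reverse transcribed with template switching and sequenced on Illumina. Relative activity is the cleaved/total read fraction of a variant divided by that of the unmutated ribozyme, averaged over three batches with at least 5 reads.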
For UAACAGGGGGCCACAGCAGAAGCGUUCACGUCGCUGCCCCUGUCAGGUUCUGGUGAAUCUGCGAACUCUGCUGUAUAUCUC, the self-cleavage came to 0.33.

Take UAACAGGGGGCCACAGCAGAAGCGUUCACGUCGCUGCACCUGUCAGACUCUGGUGAAUCUGCGAAUUCUGCUGUAUAUCUC: the self-cleavage was determined as 0.12. With UAACAGGGGGCCACAGCAGAAGCGUUCACGUCGCUGCCCCUGUCAGGUUCUGGUGAAUCCGCGAAUUCUGCUGUAUAUCUC the figure was 0.09; with UAACAGGGGGCCACAGCAGAAGCGUUCACGUCGCUGCCCCUGUCAGAUUCUGGUGAAUCUGCGUAUACCGCUGUAUAUCUC, 0.1; with UAACAGGGGGCCACAGCAGAAGCGUUCACGUCGCUCCCCUUGUCAGAUUCUGGUGAAUCUGCGAAUUCUGCUGUUUAUCUC, 0.15. With UAACAGGGGGCCACAGCAGAAGCGUUCACGUCGCUGCCCCUGUCGGAUUCUGGUGAAUCUGCGAAUCCUGCCGUAUACCUC the figure was 0.16; with UAACAGGGGGCCACAGCAGAAGCGUUCACGUCGCUGCCCCUGUCAGGUUCUGGCGGAUCUGCGAAUUCUGCUGUAUAUCUC, 0.24.

As to UAACAGGGGGCCACAGCAGAAGCGUUCACGUCGCUGCCCCAGUCCGAUUCUGGUGAAUCUGCGAAUUCUAGUGUAUAUCUC, the self-cleavage worked out at 0.06.

UAACAGGGGGCCACAGCAGAAGCGUUCACGUCGCUGCCCCUGUCAGAUUCUGGUGUAUCUGCGGAUUCUGCUGUAUACCUC: the self-cleavage turned out to be 0.13.

As for UAACAGGGGGCCACAGCAGAAGCGUUCACGUCGCUGCCCCUGUCGGAUUCUGGUGAAUCUGCGAAUUCCGCUGUAUAUCUC, the self-cleavage was 0.15. With UAACAGGGGGCCACAGCAGAAGCGUUCACGUCGCUGCCCCUGUCGGAUUCUGGUGAAUCUGCGAAUUCUGCCGCAUAUCUC the figure was 0.18; with UAACAGGGGGCCACAGCAGAAGCGUUCACGUCGCUGCCCCUGUCAGAUUCUGGUGAAUCUGCGGUUUCUGCUGUAUAUCUC, 0.22; with UAACAGGGGGCCACAGCAGAAGCGUUCACGUCGCUGCCCCUGUCAGAUUGUGGUGAAUCUGCGAAUUCAGCUGUAUAUCUC, 0.17. In the case of UAACAGGGGGCCACAGCAGAAGCGUUCACGUCGCUACCCCUGUCAGAUUCUGGUGAAUCUGCGAAUUCCGCAGUAUAUCUC, the self-cleavage is 0.07. The figure for UAACAGGGGGCCACAGCAGAAGCGUUCACGUCGCUGCCCCUGUCUGAUUCUGGUGGAUCUGCGAAUUCCGCUGUAUAUCUC is 0.11. The figure for UAACAGGGGGCCACAGCAGAAGCGUUCACGUCGCUGCUCCUGUCAGAUUCUGGUGAAUCUGCGAAUUCUGCAGUAUAUCUC is 0.39; for UAACAGGGGGCCACAGCAGAAGCGUUCACGUCGCUGCUCCUGUCAGGUUCUGGUGAAUCUGCGAAUUCUGCUGUAUAUCUC it is 0.36. With UAACAGGGGGCCACAGCAGAAGCGUUCACGUCGCUGCCCCUGUCAGAUUCUGGUGAGUCAGCGAAUUCUGCUGUAUAUCUC the figure was 0.14; with UAACAGGGGGCCACAGCAGAAGCGUUCACGUCGCUGCCCCUGUCAGAUUCUGGUGAGUCGGCGAAUUCUGCUGUAUAUCUC, 0.08; with UAACAGGGGGCCACAGCAGAAGCGUUCACGUCGCUGCCCCUGUCAGAUUCUGGUGAAUCUGCGAAUUCUGCUGUAUUACUC, 0.67. As for UAACAGGGGGCCACAGCAGAAGCGUUCACGUCGCUGCCCCUUCCAGAUUCUGGUGAAUCUGCGAAUUCAGCUGUAUAUCCC, the self-cleavage was determined as 0.12.

With UAACAGGGGGCCACAGCAGAAGCGUUCACGUCGCUUCCCCUGUCGGAUUCUGGCGAAUCUGCGAAUUCUGCUGUAUAACUC, the self-cleavage turned out to be 0.06. The figure for UAACAGGGGGCCACAGCAGAAGCGUUCACGUCGCUGCCCCUGUCUGAUUCUGGCGAAUCUGCGAAUUCUGCUGUAUAUCUC is 0.25. With UAACAGGGGGCCACAGCAGAAGCGUUCACGUCGCUGCCCCUGUCAGAUUCUGGUGGAUCUGUGAAUUCUGCUUUAUAUCUC the figure was 0.32; with UAACAGGGGGCCACAGCAGAAGCGUUCACGUCGCUGCCCCUGUCAGAUUCUGGUGAAUCUGCGAAUUCUGCUGUGUAUCGC, 0.43; with UAACAGGGGGCCACAGCAGAAGCGUUCACGUCGCUGCCCCUGUCAGAUUCUGGUGAAUCUGCGAAUUCUACUGUAUAUUUC, 0.26.

Take UAACAGGGGGCCACAGCAGAAGCGUUCACGUCGCUGCCCCUGUCAGAUUCUGGUGAGUCUGCGAAUUCGGCCGUAUAUCUC: the self-cleavage stood at 0.13. With UAACAGGGGGCCACAGCAGAAGCGUUCACGUCGCUGCCCCUGUCAGAUUCUGGUGUAUCCGCGAAUUCUGCUGUAUUUCUC the figure was 0.1; with UAACAGGGGGCCACAGCAGAAGCGUUCACGUCGCUCCACCUGUCAGAUUCAGGUGUAUCUGCGAGUCCUGCUGUAUAUCUC, 0.07.

Regarding UAACAGGGGGCCACAGCAGAAGCGUUCACGUCGCUGCCCCUGUCAGAUUCUGGUGAAUCUGCGAAUUCUGCUUUAUACCUC, the self-cleavage was 1.21. The figure for UAACAGGGGGCCACAGCAGAAGCGUUCACGUCGCUGCCCCUGUCAGAUUCUGGUGGAUCUGCGGAUUCUGCUGUAUAUCUC is 0.14; for UAACAGGGGGCCACAGCAGAAGCGUUCACGUCGCUGUCCCAGUCAGAUUCUGGUGAAUCUGCGAAUUCUGCUGUAUAUCUC it is 0.15. The figure for UAACAGGGGGCCACAGCAGAAGCGUUCACGUCGCUGCCCCUGUCAGGUUCUGGUGAAUCUGCGUAUUCUGCUGUACAUCCC is 0.15; for UAACAGGGGGCCACAGCAGAAGCGUUCACGUCGCUGCCCCUGUCUGAUUCAGGUGAAUCUGCGAAUUCUGCUGUAUAUCUC it is 0.15; for UAACAGGGGGCCACAGCAGAAGCGUUCACGUCGCUGCCCCUGUCAGAUUCUGGUGAAUCUGCGAAUUCUGGUGUGUAUCUC it is 0.07.

For UAACAGGGGGCCACAGCAGAAGCGUUCACGUCGCUGUCCCUGACAGGUUCUGGUGAAUCUGCGAAUUCUGCCGUAUAUCUC, the self-cleavage came to 0.09.

Take UAACAGGGGGCCACAGCAGAAGCGUUCACGUCGCUGCCCCUGUCAGAUUCUGGUGAGCAUGCGAAUUCUGCCGUAUAUCUC: the self-cleavage was found to be 0.09. Regarding UAACAGGGGGCCACAGCAGAAGCGUUCACGUCGCUGCUCCUGUCAGAUACUGGUGAAUCUGCGAAUUCUGCUGUAUAUCUC, the self-cleavage came out at 0.2. Take UAACAGGGGGCCACAGCAGAAGCGUUCACGUCGCUGCCCCUGUCAGUUUCUGGUGAAUCUGCGAAUUCUGCUGUAUGUCUC: the self-cleavage was 0.38.

On to UAACAGGGGGCCACAGCAGAAGCGUUCACGUCGCUGCCCCUGUCAGAUUCUGGUGAAUCUGUGAAUUCUGCUGUACAUCUC, for which the self-cleavage was 0.08.

Consider UAACAGGGGGCCACAGCAGAAGCGUUCACGUCGCUGCCCCUGUCAGAUUCUAGUGAAUCUGCGAAUUCUGCUGUAUGUCUC, for which the self-cleavage turned out to be 0.6.

Consider UAACAGGGGGCCACAGCAGAAGCGUUCACGUCGCUGCCCCUGUCAGUUUCUGGUGAAUCUGCGAAUUCUGCUGUAUAUCCC, for which the self-cleavage is 0.47.

UAACAGGGGGCCACAGCAGAAGCGUUCACGUCGCUGCCCCUGUCAGAUUAUGGUGAAUCUGCGAAUUCUGCUGUAUAUCUU: the self-cleavage came to 0.39. With UAACAGGGGGCCACAGCAGAAGCGUUCACGUCGCUGCCCCUGUCAGGCUCUGGUGAAUCCGCGAAUUCUGCAGUAUAUCUC the figure was 0.11; with UAACAGGGGGCCACAGCAGAAGCGUUCACGUCGCUACCCCUGUCAGAUUCUGGUAAUUCUGCGAAUUCUGCUGUAUGUCUC, 0.12; with UAACAGGGGGCCACAGCAGAAGCGUUCACGUCGCUGCCCCUGUCAGAUUCUAGUGAAUCCGCGGAUUCUGCUGUUCAUCUC, 0.12. For the variant UAACAGGGGGCCACAGCAGAAGCGUUCACGUCGCUGCCCCUGUCAGUUUCUGGUGUAUCCGCGAAUUCUGCUGUAUAUCUC, the self-cleavage was 0.1.

On to UAACAGGGGGCCACAGCAGAAGCGUUCACGUCGCUGCCCCUGUCAGGUUCUGGUGAAUCUGCGAAUUCUGCUAUAUAUCUC, for which the self-cleavage was 1.22.

Turning to UAACAGGGGGCCACAGCAGAAGCGUUCACGUCGCUGCCCUUGCCAGAUCCUGGUGAAUCUGCGAAUUCUGCUGUAUAUCUC, the self-cleavage turned out to be 0.07.

As to UAACAGGGGGCCACAGCAGAAGCGUUCACGUCGCUGCCCCUGUCGGAUUCUGGUGAAUCUGCGAAGUCUGCUGUAUAUCUC, the self-cleavage was determined as 0.38. Consider UAACAGGGGGCCACAGCAGAAGCGUUCACGUCGCUGCCCCUGUCAGAUUCUGGUGAAUCUGUGAAUUCUGAUGUAUAUCUC, for which the self-cleavage was 0.08. Turning to UAACAGGGGGCCACAGCAGAAGCGUUCACGUCGCUGCCCCUGUCAGGUUCUGGUGAAUCUGCGAAUCCUGCUGUAUAUCUC, the self-cleavage amounted to 0.12. The figure for UAACAGGGGGCCACAGCAGAAGCGUUCACGUCGCUGCCCCUGUCAGAUUCUGGUGAAUCUGCGAGAUCUGCUAUAUAUCUC is 0.14. With UAACAGGGGGCCACAGCAGAAGCGUUCACGUCGCUGCCCCUGUCUGAUUCUGGUGAAUCAGCGAAUUCUGCUGUAUAACUC the figure was 0.38; with UAACAGGGGGCCACAGCAGAAGCGUUCACGUCGCUGCCCCUGUCAGAUUCUGGUGUAUCUGCGAAUUCUGCAGUAUAUCCC, 0.41. With UAACAGGGGGCCACAGCAGAAGCGUUCACGUCGCUUCCCCUGUCAGAUUCUGGUGUAUCUGCGAAUUCUGCUGUAUAUCUC the figure was 0.25. Turning to UAACAGGGGGCCACAGCAGAAGCGUUCACGUCGCUGCCCCUGUCUGAUUCUGGUGAAUCUGCGAAUUCUACUGUGUAUUUC, the self-cleavage is 0.07. With UAACAGGGGGCCACAGCAGAAGCGUUCACGUCGCUGCCCCUGUCAGAUUCUGGUGAAUCUGCGAGUUCUGCUGUAUACCUC the figure was 0.12. With UAACAGGGGGCCACAGCAGAAGCGUUCACGUCGCUGCCCGUGCCAGAUUCUGGUGAAUCUGCGAAUUCUGCUGUAUAUCUC the figure was 0.21; with UAACAGGGGGCCACAGCAGAAGCGUUCACGUCGCUGCCCCUGUCAGGUUCUGGCGAAUCCGCGAAUUCUGCUGUAUGUCUC, 0.12; with UAACAGGGGGCCACAGCAGAAGCGUUCACGUCGCUGCCCUUGUCAGAUUCUGGUGAAUCUGUGAAUUCUGCUGUAUAUCUC, 0.1.

Turning to UAACAGGGGGCCACAGCAGAAGCGUUCACGUCGCUGCCCCUGUCAGAUUCUGGUGAGUCUCCGAAUUCUGCUGUAUAUACC, the self-cleavage was 0.11. Consider UAACAGGGGGCCACAGCAGAAGCGUUCACGUCGCUGCCCCUGUCAGAUUCUGGUGUAUCUGCGAAUUCGGCUGUAUAUCUC, for which the self-cleavage turned out to be 0.09. Regarding UAACAGGGGGCCACAGCAGAAGCGUUCACGUCGCUGCCCCUGUCUGAUUCCGGUGAAUCUGCGAACUCUGCCGUAUAUCCC, the self-cleavage amounted to 0.05. With UAACAGGGGGCCACAGCAGAAGCGUUCACGUCGCUGCCCCUGUCUGAUUCUGGUGGACCUGCGAGUUCUGCUGUAUAUCUC the figure was 0.18; with UAACAGGGGGCCACAGCAGAAGCGUUCACGUCGCUGCGCCUGUCAGAUUCCGGUGAAUCUGCGAAUUCUGCUGUAUAUCUC, 0.17; with UAACAGGGGGCCACAGCAGAAGCGUUCACGUCGCUGGCCCUGUCAGAUUCUGGUGAAUCAGCGAAUUCUGCAGUAUAUCUC, 0.11. Take UAACAGGGGGCCACAGCAGAAGCGUUCACGUCGCUGCCCCUGUCAGCUACUGGUGAAUCUGCGAAUUCUGCUGUAUAACUC: the self-cleavage worked out at 0.06.
